Experiments:
Assay type in all cases: in vivo
[1] = tested on: Blumeria graminis f sp. hordei; assay: Test Example D: Powdery mildew on barley; details: for Test D control value (powdery mildew on barley): preventive, control value class; for Test D (control value class, powdery mildew on barley): in vivo
Source text: [Test Example D] Powdery Mildew on Barley
After the sprayed dilutions were dried, conidia of Blumeria graminis f sp. hordei were inoculated to the plants by shaking off.

[2] = tested on: Puccinia recondita; assay: Test Example E: Brown rust on wheat; details: for Test E control value (brown rust on wheat): preventive, control value class; for Test E (control value class, brown rust on wheat): in vivo
Source text: [Test Example E] Brown Rust on Wheat

[3] = tested on: Botrytis cinerea; assay: Test Example B: Gray mold on tomato; details: for Test B control value (gray mold on tomato): preventive, control value class; for Test B (control value class, gray mold on tomato): in vivo
Source text: [Test Example B] Gray Mold on Tomato
Seeds of a test plant (tomato variety: Oogata Fukuju) were planted followed by cultivating until three to five first leaves (true leaves) appeared.

[4] = tested on: Plasmopara viticola; assay: Test Example G: Downy mildew on vine; details: for Test G control value: 250 ppm sprayed before inoculation; for Test G (control value class): 250 ppm spray; for Test G control value (downy mildew on vine): 250 ppm spray (2.5 ml/pot), preventive, control value class; for Test G (control value class, downy mildew on vine): 250 ppm, sprayed 2.5 ml/pot before inoculation
Source text: [Test Example G] Downy Mildew on Vine
Seeds of a test plant (grape variety: Neomuscat) were planted followed by cultivating until three to four first leaves appeared. […] After the sprayed dilutions were dried, a zoosporangia suspension (1-2×10^4 zoosporangia/ml) of Plasmopara viticola was inoculated to the plants by spraying.

[5] = tested on: Alternaia brassicicola; assay: Test Example C: Alternaria sooty spot on cabbage; details: for Test C control value / Test C (control value class): Alternaria sooty spot on cabbage; for Test C control value (Alternaria sooty spot on cabbage): preventive, control value class; for Test C (control value class, Alternaria sooty spot on cabbage): in vivo
Source text: [Test Example C] Alternaria Sooty Spot on Cabbage
Seeds of a test plant (cabbage variety: Shikidori) were planted followed by cultivating until the cotyledons extended.

[6] = Downy mildew on vine, 7-10 days after inoculation
[7] = powdery mildew on barley, 250 ppm spray
[8] = brown rust on wheat, Puccinia recondita, 250 ppm spray
[9] = gray mold on tomato, Botrytis cinerea, 250 ppm spray
[10] = downy mildew on vine, Plasmopara viticola, 7-10 days after inoculation
[11] = evaluated 7-10 days after inoculation

CCn1c(-c2c(F)cccc2F)c(-c2cccc(Cl)c2)cc(Br)c1=O [Compound 179]
Test D control value ([1]; Powdery mildew on barley): L (L shows 50% or less of control values)
Test E control value ([2]; Brown rust on wheat): L (L shows 50% or less of control values)
Test B control value ([3]; Gray mold on tomato): L (L shows 50% or less of control values)
Test G control value [4, 6]: L (L shows 50% or less of control values)
Test C control value [5]: H (H shows more than 50% of control values)

Cn1c(-c2c(F)cc(F)cc2F)c(-c2ccccc2F)cc(Br)c1=O [Compound 545]
Test D (control value class) [1, 7]: H (H shows more than 50% of control values)
Test E (control value class) [2, 8]: H (H shows more than 50% of control values)
Test B (control value class) [3, 9]: H (H shows more than 50% of control values)
Test G (control value class) [4, 10]: L (L shows 50% or less of control values)
Test C (control value class) ([5]; 250 ppm spray): H (H shows more than 50% of control values)

CCn1c(-c2c(F)cncc2F)c(-c2cc(OC)cc(OC)c2)ccc1=O [Compound 215]
Test D control value (powdery mildew on barley) ([1]; 250 ppm spray): H (H shows more than 50% of control values)
Test E control value (brown rust on wheat) ([2]; 250 ppm spray): H (H shows more than 50% of control values)
Test B control value (gray mold on tomato) ([3]; 250 ppm spray): H (H shows more than 50% of control values)
Test G control value (downy mildew on vine) ([4]; 7-10 days after inoculation): H (H shows more than 50% of control values)
Test C control value (Alternaria sooty spot on cabbage) ([5]; 250 ppm spray): H (H shows more than 50% of control values)

CCn1c(-c2c(F)cc(OC)cc2F)c(-c2cccc(OC)c2Cl)cc(C)c1=O [Compound 644]
Test D (control value class, powdery mildew on barley) [1]: H (H shows more than 50% of control values)
Test E (control value class, brown rust on wheat) [2]: H (H shows more than 50% of control values)
Test B (control value class, gray mold on tomato) [3]: H (H shows more than 50% of control values)
Test G (control value class, downy mildew on vine) [4, 11]: H (H shows more than 50% of control values)
Test C (control value class, Alternaria sooty spot on cabbage) [5]: H (H shows more than 50% of control values)

O=c1c(Cl)cc(-c2cc(F)ccc2Cl)c(-c2c(F)cccc2F)n1CC(F)F [Compound 392]
Test D (control value class) [1, 7]: H (H shows more than 50% of control values)
Test E (control value class) [2, 8]: H (H shows more than 50% of control values)
Test B (control value class) [3, 9]: H (H shows more than 50% of control values)
Test G (control value class) [4, 10]: L (L shows 50% or less of control values)
Test C (control value class) ([5]; 250 ppm spray): H (H shows more than 50% of control values)

CCCCOc1ccc(Cl)c(-c2ccc(=O)n(CC)c2-c2c(F)cccc2F)c1 [Compound 252]
Test D control value (powdery mildew on barley) ([1]; 250 ppm spray): H (H shows more than 50% of control values)
Test E control value (brown rust on wheat) ([2]; 250 ppm spray): L (L shows 50% or less of control values)
Test B control value (gray mold on tomato) ([3]; 250 ppm spray): L (L shows 50% or less of control values)
Test G control value (downy mildew on vine) ([4]; 7-10 days after inoculation): L (L shows 50% or less of control values)
Test C control value (Alternaria sooty spot on cabbage) ([5]; 250 ppm spray): H (H shows more than 50% of control values)

CCn1c(-c2c(F)cc(F)cc2F)c(-c2cc(F)cc(F)c2)cc(Cl)c1=O [Compound 791]
Test D (control value class) ([1]; Powdery mildew on barley, control value=100{1-(n/3)}): H (H shows more than 50% of control values)
Test E (control value class) ([2]; Brown rust on wheat, control value=100{1-(n/3)}): H (H shows more than 50% of control values)
Test B (control value class) ([3]; Gray mold on tomato, control value=100{1-(n/3)}): H (H shows more than 50% of control values)
Test G (control value class) ([4]; Downy mildew on vine, 2.5 ml/pot, evaluated 7-10 days after inoculation): L (L shows 50% or less of control values)
Test C (control value class) ([5]; control value=100{1-(n/3)}): H (H shows more than 50% of control values)

CCn1c(-c2c(F)cccc2F)c(-c2cccc(F)c2F)cc(Cl)c1=O [Compound 519]
Test D (control value class) [1, 7]: H (H shows more than 50% of control values)
Test E (control value class) [2, 8]: H (H shows more than 50% of control values)
Test B (control value class) [3, 9]: H (H shows more than 50% of control values)
Test G (control value class) [4, 10]: L (L shows 50% or less of control values)
Test C (control value class) ([5]; 250 ppm spray): H (H shows more than 50% of control values)

CCOc1cc(F)c(-c2c(-c3ccc(F)cc3Cl)ccc(=O)n2C)c(F)c1 [Compound 612]
Test D (control value class, powdery mildew on barley) [1]: H (H shows more than 50% of control values)
Test E (control value class, brown rust on wheat) [2]: H (H shows more than 50% of control values)
Test B (control value class, gray mold on tomato) [3]: H (H shows more than 50% of control values)
Test G (control value class, downy mildew on vine) [4, 11]: L (L shows 50% or less of control values)
Test C (control value class, Alternaria sooty spot on cabbage) [5]: H (H shows more than 50% of control values)

Cn1c(-c2ncc(Cl)cc2Cl)c(-c2ccccc2)ccc1=O [Compound 2]
Test D control value ([1]; Powdery mildew on barley): H (H shows more than 50% of control values)
Test E control value ([2]; Brown rust on wheat): H (H shows more than 50% of control values)
Test B control value ([3]; Gray mold on tomato): H (H shows more than 50% of control values)
Test G control value [4, 6]: H (H shows more than 50% of control values)
Test C control value [5]: H (H shows more than 50% of control values)

Cn1c(-c2c(F)cccc2F)c(-c2ccc(Br)cc2)cc(Cl)c1=O [Compound 291]
Test D control value (powdery mildew on barley) ([1]; 250 ppm spray): H (H shows more than 50% of control values)
Test E control value (brown rust on wheat) ([2]; 250 ppm spray): H (H shows more than 50% of control values)
Test B control value (gray mold on tomato) ([3]; 250 ppm spray): H (H shows more than 50% of control values)
Test G control value (downy mildew on vine) ([4]; 7-10 days after inoculation): H (H shows more than 50% of control values)
Test C control value (Alternaria sooty spot on cabbage) ([5]; 250 ppm spray): H (H shows more than 50% of control values)

CCN1C(=S)CCC(c2cc(OC)ccc2Cl)=C1c1c(F)cccc1F [Compound 581]
Test D (control value class, powdery mildew on barley) [1]: H (H shows more than 50% of control values)
Test E (control value class, brown rust on wheat) [2]: H (H shows more than 50% of control values)
Test B (control value class, gray mold on tomato) [3]: H (H shows more than 50% of control values)
Test G (control value class, downy mildew on vine) [4, 11]: H (H shows more than 50% of control values)
Test C (control value class, Alternaria sooty spot on cabbage) [5]: H (H shows more than 50% of control values)

Cc1ccc(-c2ccc(=O)n(C)c2-c2c(F)cccc2F)cc1 [Compound 270]
Test D control value (powdery mildew on barley) ([1]; 250 ppm spray): H (H shows more than 50% of control values)
Test E control value (brown rust on wheat) ([2]; 250 ppm spray): H (H shows more than 50% of control values)
Test B control value (gray mold on tomato) ([3]; 250 ppm spray): H (H shows more than 50% of control values)
Test G control value (downy mildew on vine) ([4]; 7-10 days after inoculation): L (L shows 50% or less of control values)
Test C control value (Alternaria sooty spot on cabbage) ([5]; 250 ppm spray): H (H shows more than 50% of control values)

COc1ccc(Cl)c(C2=C(c3c(F)cccc3F)N(C#N)C(=O)CC2)c1 [Compound 704]
Test D (control value class, powdery mildew on barley) [1]: L (L shows 50% or less of control values)
Test E (control value class, brown rust on wheat) [2]: L (L shows 50% or less of control values)
Test B (control value class, gray mold on tomato) [3]: L (L shows 50% or less of control values)
Test G (control value class, downy mildew on vine) [4, 11]: H (H shows more than 50% of control values)
Test C (control value class, Alternaria sooty spot on cabbage) [5]: L (L shows 50% or less of control values)

Cn1c(-c2c(F)cc(F)cc2F)c(-c2cccc(F)c2F)cc(Br)c1=O [Compound 560]
Test D (control value class) [1, 7]: H (H shows more than 50% of control values)
Test E (control value class) [2, 8]: H (H shows more than 50% of control values)
Test B (control value class) [3, 9]: H (H shows more than 50% of control values)
Test G (control value class) [4, 10]: L (L shows 50% or less of control values)
Test C (control value class) ([5]; 250 ppm spray): H (H shows more than 50% of control values)

CCOc1cc(F)c(-c2c(-c3cc(F)cc(F)c3F)cc(Cl)c(=O)n2CC)c(F)c1 [Compound 580]
Test D (control value class, powdery mildew on barley) [1]: H (H shows more than 50% of control values)
Test E (control value class, brown rust on wheat) [2]: H (H shows more than 50% of control values)
Test B (control value class, gray mold on tomato) [3]: H (H shows more than 50% of control values)
Test G (control value class, downy mildew on vine) [4, 11]: L (L shows 50% or less of control values)
Test C (control value class, Alternaria sooty spot on cabbage) [5]: H (H shows more than 50% of control values)

Cn1c(-c2c(F)cccc2F)c(-c2ccc(Cl)cc2)cc(Br)c1=O [Compound 286]
Test D control value (powdery mildew on barley) ([1]; 250 ppm spray): L (L shows 50% or less of control values)
Test E control value (brown rust on wheat) ([2]; 250 ppm spray): H (H shows more than 50% of control values)
Test B control value (gray mold on tomato) ([3]; 250 ppm spray): H (H shows more than 50% of control values)
Test G control value (downy mildew on vine) ([4]; 7-10 days after inoculation): H (H shows more than 50% of control values)
Test C control value (Alternaria sooty spot on cabbage) ([5]; 250 ppm spray): H (H shows more than 50% of control values)

CN1C(=O)CCC(c2cccc(F)c2)=C1c1c(F)cccc1F [Compound 172]
Test D control value ([1]; Powdery mildew on barley): H (H shows more than 50% of control values)
Test E control value ([2]; Brown rust on wheat): H (H shows more than 50% of control values)
Test B control value ([3]; Gray mold on tomato): H (H shows more than 50% of control values)
Test G control value [4, 6]: L (L shows 50% or less of control values)
Test C control value [5]: H (H shows more than 50% of control values)

Cn1c(-c2c(F)cc(Cl)cc2F)c(-c2cc(F)ccc2Cl)ccc1=O [Compound 604]
Test D (control value class, powdery mildew on barley) [1]: H (H shows more than 50% of control values)
Test E (control value class, brown rust on wheat) [2]: H (H shows more than 50% of control values)
Test B (control value class, gray mold on tomato) [3]: H (H shows more than 50% of control values)
Test G (control value class, downy mildew on vine) [4, 11]: L (L shows 50% or less of control values)
Test C (control value class, Alternaria sooty spot on cabbage) [5]: H (H shows more than 50% of control values)

Reference: patent publication US10299477B2 (priority 2015, dated 2019)
